This is an account of results in ChEMBL document CHEMBL4888484, “Replenishing the malaria drug discovery pipeline: Screening and hit evaluation of the MMV Hit Generation Library 1 (HGL1) against asexual blood stage Plasmodium falciparum ,using a nano luciferase reporter read-out” (2022).

The whole screen tested about 150,000 compounds, of which about 540 (0.36%) showed an effect of 50% or more. The list shows a part of the results.

For this experiment, the system named is Plasmodium falciparum. Description: Primary screen in NF54 nanoGlo assay, in single point, at 2uM, 72h; a lower Z score goes with more inhibition. Type of experiment: functional, Erythrocyte. The settings on record: timepoint 72 hour.
In general, % Inhibition refers to the drop in the measured response relative to a control, in per cent. In the case of `Cc1cc(C(=O)N2CCCC[C@H]2C(=O)NCC(F)F)cc(O)n1`, the “% Inhibition” value is -11% and the Z score is recorded as 1.63.
As to `Cc1ncsc1-c1ccc(CNC(=O)CC2(CO)CC2)cc1`, the “% Inhibition” value was -7% and the Z score was 0.96.
With `CC(C)N1CCC[C@H](Nc2cccc(CO)c2)C1=O`, the “% Inhibition” value was -13% and the Z score was determined as 1.2.
On the same counts, the results for `CCS(=O)(=O)N1CC(=O)N(c2ccc(C)cc2)[C@](C)(C(=O)NCc2ccc(F)cc2)C1` are -11% and 1.4.
The matching figures for `CCS(=O)(=O)C[C@H](C)N(C)C(=O)CCc1ccc(OC)c(F)c1`: -7% and 0.94.
The matching figures for `COc1ccc(C(=O)N[C@@H]2CCC[C@@H]2C(=O)N2CCN(c3ncccn3)CC2)cn1`: -15% and 2.02.
For `CC(C)CN1CCCN(C(=O)Cn2ccc(=O)cc2)CC1`, the “% Inhibition” value came to 5% and the Z score is -0.74.
As for `O=C(N1CCCCCC1)N1CCOCC1`, the “% Inhibition” value was -9% and the Z score is 1.11.
Take `O=C(Nc1ccccc1)N[C@H]1C[C@H]2C(=O)NC[C@@H](CCC(=O)N3CCN(c4ccccn4)CC3)N2C1`: the “% Inhibition” value is given as -16% and the Z score was 2.41.
Regarding `COc1ccnc(N2CCC[C@@]3(CCC(=O)N(Cc4ccccn4)C3)C2)n1`, the “% Inhibition” value is recorded as 2% and the Z score is listed as -0.26.
Turning to `O=c1[nH]c2ccccc2c(=O)n1C[C@H]1CC[C@H](C(=O)NC2CC2)CC1`, the “% Inhibition” value is recorded as 0% and the Z score is listed as -0.02.
On the same counts, the results for `CC(C)n1cnnc1[C@H](C)NC(=O)CN(C)C1CCCC1` are 3% and -0.58.
Take `CCCCCNC(=O)[C@H](C#N)C(=O)N1CCOCC1`: the “% Inhibition” value is -10% and the Z score amounted to 1.4.
For `COC(=O)CC[C@H]1NC(=O)N(c2ccc(-c3csnn3)cc2)C1=O`, the “% Inhibition” value was determined as 17% and the Z score is reported as -2.14.
The matching figures for `COc1ccc(CN2CC[C@H]3CN(C(C)=O)C[C@@]3(CO)C2)cc1OC`: 3% and -0.52.
Regarding `CCOCC1(c2nc(-c3cccc(N4CCN(C)CC4)n3)no2)CC1`, the “% Inhibition” value is recorded as 5% and the Z score is on record as -0.62.
For `Cn1cnc(C(=O)N2CCCc3c(Br)c(F)cc(F)c32)n1`, the “% Inhibition” value is on record as -6% and the Z score turned out to be 0.88.
`COc1ccccc1[C@@H](NC(=O)c1ccc2c(=O)n3c(nc2c1)CCCCC3)c1nccn1C`: the “% Inhibition” value is recorded as 9% and the Z score is on record as -1.36.
The matching figures for `O=C(N[C@H]1CC12CC2)c1ccncc1F`: 32% and -4.56.
The matching figures for `COc1ccc(-n2nc(C)c3c2NC(=O)C[C@@H]3c2ccccc2OCc2cccc(F)c2)cc1`: 8% and -0.91.
Regarding `CCc1nc(C)c(-c2c(-c3ccccc3)ncn2CC(C)(C)N2CCOCC2)[nH]1`, the “% Inhibition” value amounted to 0% and the Z score is recorded as 0.06.
The matching figures for `Cc1cc(C(=O)N(c2cccc(F)c2)C2CCCC2)n(C)n1`: -5% and 0.82.
Turning to `CC(=O)N1CCCN(Cc2ccc(N3CCCCC3)c(C)c2)CC1`, the “% Inhibition” value came out at 2% and the Z score is reported as -0.33.
The matching figures for `CC(=O)n1cc(-c2nnc3cnccn23)c2ccccc21`: -11% and 2.09.
For `Cc1cc(C(F)(F)F)cc(N2C[C@H](NC(=O)CO)[C@@H](C3CC3)C2)n1`, the “% Inhibition” value is on record as -26% and the Z score was 2.3.
The matching figures for `Cc1cccc(F)c1CNC(=O)C1C[C@H]2C[C@@H](N)[C@H]2C1` (some centres undefined): 1% and -0.16.
As for `O=C(Cc1noc2ccccc12)Nc1cc(Cl)cc(C(=O)O)c1`, the “% Inhibition” value is -5% and the Z score is 0.88.
The matching figures for `Cc1ncsc1Cn1cc(CN2CCOC[C@H]2C)nn1`: -4% and 0.73.
The matching figures for `CCS(=O)(=O)CCNC(=O)Cc1c[nH]c2cc(C)ccc12`: -9% and 0.74.
On to `COc1ccc(COCC(=O)N2CCC(F)(c3ccc(Cl)cc3)CC2)cn1`, for which the “% Inhibition” value amounted to 1% and the Z score is on record as -0.11.
On the same counts, the results for `O=S(=O)(CCN1CC(n2cccn2)C1)c1ccc(Cl)cc1` are 3% and -0.43.
On the same counts, the results for `CNCCCOc1c(C)cc(Br)cc1C` are 11% and -1.78.
Take `CC(C)NS(=O)(=O)c1ccc2c(c1)nnn2CCNC(=O)NC(C)(C)C`: the “% Inhibition” value is -22% and the Z score came out at 2.26.
The matching figures for `Cc1cccc(NC(=O)N2CCN(C3CC3)[C@H](C(N)=O)C2)c1F`: -8% and 1.17.
The matching figures for `CC1(C)C[C@@H]1C(=O)NC1C(C)(C)C1(C)C`: 2% and -0.37.
The matching figures for `Nc1ncc(Cl)cc1S(=O)(=O)Oc1ccc2c(c1)CCC(=O)N2`: 32% and -3.63.
For the compound `COc1cc(CCC(=O)N2CCOc3c(F)cc(F)cc32)on1`, the “% Inhibition” value is listed as 2% and the Z score is -0.35.
In the case of `CC(C)[C@H](CNC(=O)N1CCN(C(=O)C(C)(C)C)CC1)Cc1ccccc1`, the “% Inhibition” value is 5% and the Z score is given as -0.64.
The matching figures for `COc1ccc(CNc2ccncc2F)cc1OCc1ccccc1`: -2% and 0.19.
On the same counts, the results for `O=S(=O)(c1ccccc1F)N1CCC2(CC1)CC2(F)F` are 10% and -1.24.
On the same counts, the results for `N#Cc1cccc(N2CCN(C(=O)Cn3ccnc3)C[C@H](O)C2)n1` are 19% and -2.51.
Turning to `CCCn1nccc1C(=O)N1CC[C@]23C(=O)N(CC(=O)NCCCOc4cccc(c4)[C@H]12)c1ccccc13`, the “% Inhibition” value is -6% and the Z score was 1.22.
On the same counts, the results for `O=C1CC[C@H](C(=O)Nc2ccccc2C(=O)NCc2ccccn2)N1` are -11% and 1.22.
As to `CC(C)(C)C(=O)NCCNC(=O)c1ccccn1`, the “% Inhibition” value is on record as 38% and the Z score is recorded as -1.17.
Take `O=C(CCn1cnc2ccccc2c1=O)N1CC(c2nc(-c3cnccn3)no2)C1`: the “% Inhibition” value is -3% and the Z score is recorded as 0.48.
The matching figures for `Cc1cc(C)c2c(=O)n(CC(=O)N3CCC[C@H](C)C3)c(=O)n(-c3ccccc3)c2n1`: -4% and 0.47.
On the same counts, the results for `N#Cc1cnc2ccc(F)cc2c1N1CCC(C(=O)Nc2ccc3c(c2)OCCO3)CC1` are -2% and 0.31.
Consider `CC(C)(C)NC(=O)c1ccccc1NC(=O)[C@H]1CC(=O)N(CCc2c[nH]c3ccc(F)cc23)C1`, for which the “% Inhibition” value is 3% and the Z score was -0.56.
In the case of `COc1ccc(CNC(=O)Cn2c(=O)n(Cc3cccc(Cl)c3)c(=O)c3ccccc32)cc1OC`, the “% Inhibition” value is reported as 29% and the Z score was -3.27.
In the case of `O=C(Nc1ccccc1C(F)(F)F)N(CCN1CCCCC1)C1CCOCC1`, the “% Inhibition” value was -3% and the Z score was determined as 0.47.
As for `COc1ccc(Oc2nc(N3CCCCC3)nc3c2CN(Cc2cc(OC)cc(OC)c2)CC3)cc1`, the “% Inhibition” value is -22% and the Z score is recorded as 2.14.
On to `CC(C)(C)C(=O)NC[C@H]1CCCN(Cc2ccnc3ccccc23)C1`, for which the “% Inhibition” value was 2% and the Z score is -0.42.
